Experimental data: PubChem BioAssay AID624417 (National Center for Advancing Translational Sciences (NCATS), 2012)
Out of some 410,000 compounds screened, about 6,400 (1.6%) were called active. The shares of active, inactive and inconclusive entries below differ from those in the screen. The call rests on the fitted dose curve; in most records, active means well fitted inhibition curve with a large enough effect; inconclusive means small, poorly fitted or top-dose-only effect; inactive means no such curve, though single readings can be large or run the other way. No potency is given beside an inconclusive call; the fits are too rough.

Biological target: Glucagon-like peptide 1 receptor (Homo sapiens) (UniProt P43220)
UniProt P43220, sequence (P43220 whole entry, looked up): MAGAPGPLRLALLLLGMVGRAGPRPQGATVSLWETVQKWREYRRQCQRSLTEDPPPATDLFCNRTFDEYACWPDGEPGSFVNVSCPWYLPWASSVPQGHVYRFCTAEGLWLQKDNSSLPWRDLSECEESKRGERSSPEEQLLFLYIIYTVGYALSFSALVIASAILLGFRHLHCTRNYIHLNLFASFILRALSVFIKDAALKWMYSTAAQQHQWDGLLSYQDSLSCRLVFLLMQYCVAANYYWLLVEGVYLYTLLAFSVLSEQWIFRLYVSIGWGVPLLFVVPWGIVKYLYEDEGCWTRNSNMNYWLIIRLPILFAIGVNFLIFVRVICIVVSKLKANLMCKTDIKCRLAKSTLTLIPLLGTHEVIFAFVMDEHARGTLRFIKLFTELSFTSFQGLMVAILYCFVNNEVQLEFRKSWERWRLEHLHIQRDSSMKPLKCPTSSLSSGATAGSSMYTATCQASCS
Experiment: qHTS of GLP-1 Receptor Inverse Agonists (Inhibition Mode); further: nearly all actives have a fitted effect of over 55% in size
Details: HEK293 GLP-1R CRE-luciferase, luminescence, 24 h, GLP-1R form is constitutively active; activity change, negative = inhibition: at 38.3 µM (top of the series) unless noted
Summary of the method: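 HEK293 cells stably co-expressing a cAMP-responsive luciferase reporter and constitutively active GLP-1R were seeded, incubated 12 h, then exposed to compounds for 24 h at 37 C. Luminescence was read 12 min after detection reagent; inverse agonists lower signal.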
On the % scale 0 is the no-effect control and ±100 the full control effect; potency means the concentration at half of the fitted maximal effect; tags describe the fitted curve by direction and shape.

| Structure (SMILES) | Potency | activity change, negative = inhibition |
| --- | --- | --- |
| COc1cccc(S(=O)(=O)Nc2ccc(C(=O)Nc3ccncc3)cc2)c1 | inconclusive [inhibitor, full curve, poor fit] | – |
| Cc1c(N=C/C=C2\N(C)c3ccccc3C2(C)C)c(=O)n(-c2ccccc2)n1C | inconclusive [inhibitor, partial curve, poor fit] | – |
| CC1(C)N=C(SCC(=O)Nc2ccccc2)C(c2ccc(Cl)cc2)=N1 | inconclusive [inhibitor, partial curve, poor fit] | – |
| CC1(C(=O)NCc2ccc(C(F)(F)F)cc2)CCN1Cc1ccc(-c2ccccc2)o1 (stereo unspecified) | inconclusive [inhibitor, single point] | – |
| CC(Nc1nc(-c2ccncc2)nc2ccccc12)c1ccccc1 (stereo unspecified) | active: 7.08 µM | – |
| COc1ccccc1C(=O)Nc1nnc(SCc2cc(=O)c3cc(Cl)ccc3[nH]2)s1 | – | inactive: 5.65% |
| N#C/C(C(=O)Nc1ccc(Cl)cc1)=C(/S)Nc1ccccc1 | inconclusive [inhibitor, partial curve, poor fit] | – |
| COc1ccc(C(=O)Oc2c(CN3CCOCC3)cc(Cl)c3cccnc23)cc1 | inconclusive [inhibitor, full curve, poor fit] | – |
| CN(C)c1ccc(C(C(=O)NC2CCCC2)N(C(=O)c2ccco2)C2CC2)cc1 (stereo unspecified) | inconclusive [inhibitor, partial curve, poor fit] | – |
| CC(C)CC(C(=O)N1CCc2ccccc2C1)N1C(=O)c2ccccc2C1=O (stereo unspecified) | inconclusive [inhibitor, partial curve, poor fit] | – |
| Cc1ccc(-n2cc(-c3ccccc3)nc2S(=O)(=O)CC(=O)Nc2ccc(F)cc2)cc1 | inconclusive [inhibitor, single point] | – |
| COc1ccc(-n2nc(C(=O)Nc3ccc(C)cn3)c3c4ccccc4n(C)c3c2=O)cc1 | – | inactive: 4.1% |
| Nn1c(SCC(=O)N2CCCc3ccccc32)nnc1-c1ccc(Cl)cc1 | inconclusive [inhibitor, single point] | – |
| CC(C)COc1ccc(C(=O)N/N=C/c2ccoc2)cc1 | – | inactive: 15.6% |
| Cc1c(Cc2ccccc2)c(=O)oc2cc(O)ccc12 | inconclusive [inhibitor, single point] | – |
| CCc1nc2nc(C)c(NS(=O)(=O)c3cccs3)c(=O)n2[nH]1 | – | inactive: -6.82% |
| CSc1nnc(NC(=O)c2nc(S(=O)(=O)Cc3ccccc3F)ncc2Cl)s1 | inconclusive [inhibitor, single point] | – |
| COc1ccccc1OC(C)C(=O)Nc1c(C(=O)c2ccc(Cl)cc2)oc2ccccc12 (stereo unspecified) | – | inactive: 1.19% |
| Cc1ccc(C)c(N2CCN(Cc3nnc(-c4ccc5c(c4)OCO5)o3)CC2)c1 | inconclusive [inhibitor, single point] | – |
| CCC(=O)N1c2ccccc2CC1C(=O)NCCN1CCN(c2cccc(C(F)(F)F)c2)CC1 (stereo unspecified) | inconclusive [inhibitor, full curve] | – |
| C=CCn1c(=O)n(C(=O)OCC)c2cc(Br)ccc21 | – | inactive: 16.7% |

| Structure (SMILES) | Potency | activity change, negative = inhibition |
| --- | --- | --- |
| Cc1cc2nc3ccc(N(C)C)cc3nc2cc1N | inconclusive [inhibitor, single point] | – |
| O=C(C1CCCCC1)N1C[C@@H](n2cc(-c3ccc(F)cc3)nn2)[C@H](O)C[C@@H]1c1ccc(Cl)cc1 | inconclusive [inhibitor, partial curve, poor fit] | – |
| Fc1cccc(Oc2nc3ccccc3n3cccc23)c1 | – | inactive: -15.2% |
| CCN1CCN(C(=S)Nc2sc(C)c(-c3ccccc3)c2C(=O)OC)CC1 | inconclusive [inhibitor, partial curve, poor fit] | – |
| COc1cc(Nc2ncc3c(n2)CCN(C(=O)Nc2ccc(C(C)C)cc2)C3)cc(OC)c1OC | inconclusive [inhibitor, partial curve] | – |
| CCOC(=O)Cn1c(=O)n(CC2CCCO2)c2nc(-c3cccc(C)c3)nc(C(N)=O)c21 (stereo unspecified) | – | inactive: -19.6% |
| CC1(C)CC(=O)C2=C(C1)OC(N)=C(C#N)C2C#Cc1ccccc1 (stereo unspecified) | inconclusive [inhibitor, single point] | – |
| Cc1nc(N2CCN(C(=O)c3cccs3)CC2)c2c3c(sc2n1)CCCC3 | inconclusive [inhibitor, single point] | – |
| Cc1nc(NC(=O)COC(=O)/C=C/c2ccco2)c(Cl)cc1Cl | – | inactive: 0.0147% |
| Fc1ccccc1OCCSc1nc2ccccc2o1 | inconclusive [inhibitor, single point] | – |
| CC1CCc2c(sc(/N=C/c3cccnc3)c2C(N)=O)C1 (stereo unspecified) | – | inactive: 0.196% |
| CC(C)Oc1ccc(F)cc1-c1cc(C(=O)Nc2ccc(C(C)(C)C)cc2)[nH]n1 | inconclusive [inhibitor, partial curve, poor fit] | – |
| CCOc1ccc(NCc2cccn2-c2nnc(N3CCC(C(=O)NCCCN4CCCCC4C)CC3)s2)cc1 (stereo unspecified) | inconclusive [inhibitor, partial curve, poor fit] | – |
| CC(C)CC[n+]1ccccc1/C=C/c1ccc(N(C)C)cc1 | inconclusive [inhibitor, full curve, poor fit] | – |
| CC(=O)Nc1nonc1-c1nnc(SCC(=O)Nc2ccccc2)n1-c1ccccc1 | – | inactive: -15.9% |
| CC1CCc2c(sc3nc(CN4CCOCC4)nc(NS(=O)(=O)c4cccc([N+](=O)[O-])c4)c23)C1 (stereo unspecified) | inconclusive [inhibitor, full curve, poor fit] | – |
| O=C(Nc1cccc(F)c1)C1CCN(C(=O)c2ccc(Cl)cc2)CC1 | inconclusive [inhibitor, partial curve, poor fit] | – |
| Cc1cc(Cl)ccc1C(=O)C1CCCN(C(=O)c2nonc2C)C1 (stereo unspecified) | inconclusive [inhibitor, single point] | – |
| Cc1cc(C)c(OCCCCN(C)C)c(Br)c1 | inconclusive [inhibitor, partial curve, poor fit] | – |
| CN1CCN(C2=Cc3cc(Cl)ccc3Sc3cc(F)ccc32)CC1 | inconclusive [inhibitor, partial curve, poor fit] | – |
